# Experimental data as given in PubChem BioAssay (Tox21).
# Values joined by “and” are separate entries in the source; they are usually repeats but may differ in a detail not shown here. Identical values can stand only once. The inconclusive results got no clear call from the source; some entries with a clear call stand among them for comparison. A potency beside an inconclusive call is a rough fit, not a confirmed value. Active and inactive are the calls of the source. Unless noted, calls come from the whole dose curve; as a rule, active = well fitted curve in the direction sought with a large enough effect in the repeat runs; inconclusive = weak or mixed curves; inactive = no such curve, though single readings can be large; an effect the other way counts as inactive or inconclusive.
# Assays:
# [1] = qHTS assay to identify small molecule antagonists of the TGF-beta/Smad signaling pathway (AID 1346924; active = well fitted inhibition curve with a large enough effect in the signal ratio in the repeat runs, not every such curve was filed as active; inconclusive = weak or mixed curves; the % refers to the signal ratio); conditions: SBE-bla HEK293T, TGF-beta/Smad reporter, beta-lactamase ratio; activity, negative = inhibition: at 76.8 µM (top of the series) unless noted
# How it was run: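 SBE-bla HEK 293T cells were plated overnight, then received compound in DMSO plus TGF-beta1 (added as a 0.25 ng/mL solution) and were incubated 5 h at 37 C. Beta-lactamase reporter activity was read after 2 h at room temperature with LiveBLAzer B/G FRET substrate (ex 405, em 460/530 nm).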
# [2] = Caspase-3/7 induction in CHO-K1 cells by small molecules, qHTS cell viability counter screen (AID 1346979); note: nearly all actives have a fitted effect of over 35% in size
# How it was run: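 Cells (CHO-K1, wild type) are plated at 1,500 per well and incubated 5hr. Test compounds in DMSO are then pinned in, followed by 16hr at 37C and 5% CO2. Viability is read by CellTiter-Fluor fluorescence after 1hr.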
# [3] = target: Cytochrome P450 2D6 (Homo sapiens) (UniProt P10635); assay: Cytochrome P450 Family 2 Subfamily D Member 6 (CYP2D6) small molecule antagonists: luciferase reporter qHTS assay (AID 1671196); note: nearly all actives have a fitted effect of over 50% in size
# How it was run: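 CYP2D6 enzyme–substrate mix was held with compound for 10 min at room temperature, then NADPH regeneration solution was added and the reaction ran 1 h at room temperature. Luciferin product was detected by luminescence after 20 min with detection reagent.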
# [4] = Caspase-3/7 induction in HepG2 cells by small molecules, qHTS cell viability counter screen (AID 1346981); note: nearly all actives have a fitted effect of over 30% in size
# How it was run: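 Wild-type HepG2 cells (2,000/well) were allowed to settle for 5 hr at 37 C, 5% CO2, then dosed with compounds in DMSO by pin transfer. After 16 hr at 37 C, CellTiter-Fluor was added and fluorescence read 1 hr later.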
# [5] = target: Cytochrome P450 2C9 (Homo sapiens) (UniProt P11712); assay: Cytochrome P450 Family 2 Subfamily C Member 9 (CYP2C9) small molecule antagonists: luciferase reporter qHTS assay (AID 1671198); note: nearly all actives have a fitted effect of over 50% in size
# How it was run: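 P450-Glo proluciferin substrate with CYP2C9 enzyme; 10 min RT preincubation, then NADPH regeneration 1 h at 37C; luciferin detection reagent 20 min RT, luminescence in relative luminescence units.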
# [6] = target: Nuclear receptor subfamily 1 group I member 2 (Homo sapiens) (UniProt O75469); assay: Human pregnane X receptor (PXR) small molecule agonists, qHTS assay (AID 1346982); note: nearly all actives have a fitted effect of over 35% in size
# How it was run: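 PXR-Luc HepG2 cells (CYP3A4 promoter-driven luciferase) were seeded in medium with 5% charcoal-stripped FBS, left 5 hr at 37 C, then exposed to compounds in DMSO for 24 hr. Luminescence was read after ONE-Glo addition.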
# [7] = target: Nuclear receptor subfamily 1 group I member 2 (Homo sapiens) (UniProt O75469); assay: CYP3A4 induction through human pregnane X receptor (PXR) by small molecules, qHTS assay (AID 1346984); note: nearly all actives have a fitted effect of over 40% in size; for activation: % is set by controls: 0 for no effect and ±100 for the full control effect
# How it was run: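 DPX-2 cells (HepG2 co-transfected with PXR and CYP3A4 promoter-luciferase) treated with compounds 24 h at 37C; luciferin-IPA CYP3A4 substrate 3uM final added for 3 h, then One-Glo; luminescence read. qHTS format.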
# [8] = target: Nuclear receptor subfamily 1 group I member 2 (Homo sapiens) (UniProt O75469); assay: Human pregnane X receptor (PXR) activation by small molecules, qHTS assay (AID 1346985); note: nearly all actives have a fitted effect of over 40% in size
# How it was run: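 DPX-2 cells (HepG2 co-transfected with a PXR response element and a CYP3A4-promoter luciferase construct) were seeded at 2,000 per well, rested 5 hr at 37C, then exposed to DMSO-dissolved compounds for 24 hr. Activation was read as luciferase luminescence.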
# [9] = target: Voltage-gated inwardly rectifying potassium channel KCNH2 (Homo sapiens) (UniProt Q12809); assay: Human Ether-a-go-go-Related Gene (hERG) channel small molecule antagonists: fluorescence cell-based qHTS assay (AID 1671200); note: nearly all actives have a fitted effect of over 50% in size
# How it was run: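 Channel function was assessed by thallium flux. Cells seeded the previous day and kept at 37 C took up FluxOR II dye over 1 h in the dark at room temperature, then sat another 10 min before stimulation.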
# [10] = target: Cytochrome P450 1A2 (Homo sapiens) (UniProt P05177); assay: Cytochrome P450 Family 1 Subfamily A Member 2 (CYP1A2) small molecule antagonists: luciferase reporter qHTS assay (AID 1671199); note: nearly all actives have a fitted effect of over 50% in size
# How it was run: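 Human CYP1A2 activity measured with a P450-Glo proluciferin substrate; compounds in DMSO preincubated 10 min at room temperature with enzyme-substrate mix, then NADPH regeneration system added for 1 h. Luciferin detection reagent, 20 min, luminescence read.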
# [11] = target: Cytochrome P450 2C19 (Homo sapiens) (UniProt P33261); assay: Cytochrome P450 Family 2 Subfamily C Member 19 (CYP2C19) small molecule antagonists: luciferase reporter qHTS assay (AID 1671197); note: nearly all actives have a fitted effect of over 65% in size
# How it was run: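 First, compounds are pinned into enzyme-substrate mix and held 10 min at room temperature. Second, NADPH regeneration solution is added and plates incubate 1 h at 37C. Third, detection reagent is added and luminescence read after 20 min.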
# [12] = Caspase-3/7 induction in CHO-K1 cells by small molecules, qHTS assay (AID 1346980); note: nearly all actives have a fitted effect of over 15% in size
# How it was run: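 Wild-type CHO-K1 cells exposed to compounds for 17hr at 37 C, 5% CO2. Caspase-3/7 activity then measured by Caspase-Glo 3/7 luminescence after 30min at room temperature.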
# [13] = target: Cytochrome P450 3A4 (Homo sapiens) (UniProt P08684); assay: Cytochrome P450 Family 3 Subfamily A Member 4 (CYP3A4) small molecule antagonists: luciferase reporter qHTS assay (AID 1671201); note: nearly all actives have a fitted effect of over 50% in size
# How it was run: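 Compounds in DMSO were pin-transferred onto CYP3A4 enzyme-substrate mix and held 10 min at room temperature. NADPH regenerating solution started the reaction for 1 h; luciferin detection reagent stopped it, and luminescence was read after 20 min.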
# Potency is the fitted concentration of half-maximal effect; tags give direction and shape of the fitted curve or compound fluorescence and quenching.
# Sequence of UniProt P10635 (P10635 whole entry, looked up): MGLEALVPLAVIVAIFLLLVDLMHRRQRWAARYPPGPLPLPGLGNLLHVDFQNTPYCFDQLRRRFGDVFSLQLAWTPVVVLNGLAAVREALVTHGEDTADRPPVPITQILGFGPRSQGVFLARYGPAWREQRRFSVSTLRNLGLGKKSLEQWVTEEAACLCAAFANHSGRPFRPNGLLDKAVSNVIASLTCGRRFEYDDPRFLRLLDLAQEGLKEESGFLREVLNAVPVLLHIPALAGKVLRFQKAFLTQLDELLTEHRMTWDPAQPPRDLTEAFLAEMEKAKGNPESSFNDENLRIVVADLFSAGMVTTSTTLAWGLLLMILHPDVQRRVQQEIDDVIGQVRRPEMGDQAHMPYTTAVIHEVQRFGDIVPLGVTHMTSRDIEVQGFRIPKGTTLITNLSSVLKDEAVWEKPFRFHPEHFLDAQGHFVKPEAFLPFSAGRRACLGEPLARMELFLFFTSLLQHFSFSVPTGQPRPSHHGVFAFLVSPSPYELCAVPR
# Sequence of UniProt P11712 (P11712 whole entry, looked up): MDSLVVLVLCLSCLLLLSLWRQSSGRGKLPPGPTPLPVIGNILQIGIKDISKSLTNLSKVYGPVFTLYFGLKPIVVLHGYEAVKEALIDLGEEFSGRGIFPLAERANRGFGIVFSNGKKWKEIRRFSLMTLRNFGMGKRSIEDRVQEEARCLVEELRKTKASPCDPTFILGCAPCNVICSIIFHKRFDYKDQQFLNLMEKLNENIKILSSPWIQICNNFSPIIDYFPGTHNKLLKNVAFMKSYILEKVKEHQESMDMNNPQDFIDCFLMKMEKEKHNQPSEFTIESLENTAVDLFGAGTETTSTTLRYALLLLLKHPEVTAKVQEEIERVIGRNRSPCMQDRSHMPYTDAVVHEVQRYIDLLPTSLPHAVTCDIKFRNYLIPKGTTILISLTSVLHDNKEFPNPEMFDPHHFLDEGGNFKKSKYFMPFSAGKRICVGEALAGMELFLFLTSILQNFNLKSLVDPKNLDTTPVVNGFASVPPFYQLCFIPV
# Sequence of UniProt P05177 (P05177 whole entry, looked up): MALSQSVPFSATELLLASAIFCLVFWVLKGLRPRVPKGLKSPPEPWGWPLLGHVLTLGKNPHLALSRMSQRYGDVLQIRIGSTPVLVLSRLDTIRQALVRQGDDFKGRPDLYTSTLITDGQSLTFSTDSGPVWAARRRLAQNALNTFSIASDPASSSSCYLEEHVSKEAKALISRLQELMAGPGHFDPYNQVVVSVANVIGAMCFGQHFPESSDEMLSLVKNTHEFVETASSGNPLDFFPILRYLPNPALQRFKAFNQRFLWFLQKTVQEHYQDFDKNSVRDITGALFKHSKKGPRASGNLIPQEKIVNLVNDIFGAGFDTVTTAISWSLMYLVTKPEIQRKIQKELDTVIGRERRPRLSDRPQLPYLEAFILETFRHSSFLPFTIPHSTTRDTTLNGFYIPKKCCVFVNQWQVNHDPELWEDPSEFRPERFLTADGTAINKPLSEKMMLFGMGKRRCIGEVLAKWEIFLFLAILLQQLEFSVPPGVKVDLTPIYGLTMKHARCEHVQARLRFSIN
# Sequence of UniProt Q12809 (Q12809 whole entry, looked up): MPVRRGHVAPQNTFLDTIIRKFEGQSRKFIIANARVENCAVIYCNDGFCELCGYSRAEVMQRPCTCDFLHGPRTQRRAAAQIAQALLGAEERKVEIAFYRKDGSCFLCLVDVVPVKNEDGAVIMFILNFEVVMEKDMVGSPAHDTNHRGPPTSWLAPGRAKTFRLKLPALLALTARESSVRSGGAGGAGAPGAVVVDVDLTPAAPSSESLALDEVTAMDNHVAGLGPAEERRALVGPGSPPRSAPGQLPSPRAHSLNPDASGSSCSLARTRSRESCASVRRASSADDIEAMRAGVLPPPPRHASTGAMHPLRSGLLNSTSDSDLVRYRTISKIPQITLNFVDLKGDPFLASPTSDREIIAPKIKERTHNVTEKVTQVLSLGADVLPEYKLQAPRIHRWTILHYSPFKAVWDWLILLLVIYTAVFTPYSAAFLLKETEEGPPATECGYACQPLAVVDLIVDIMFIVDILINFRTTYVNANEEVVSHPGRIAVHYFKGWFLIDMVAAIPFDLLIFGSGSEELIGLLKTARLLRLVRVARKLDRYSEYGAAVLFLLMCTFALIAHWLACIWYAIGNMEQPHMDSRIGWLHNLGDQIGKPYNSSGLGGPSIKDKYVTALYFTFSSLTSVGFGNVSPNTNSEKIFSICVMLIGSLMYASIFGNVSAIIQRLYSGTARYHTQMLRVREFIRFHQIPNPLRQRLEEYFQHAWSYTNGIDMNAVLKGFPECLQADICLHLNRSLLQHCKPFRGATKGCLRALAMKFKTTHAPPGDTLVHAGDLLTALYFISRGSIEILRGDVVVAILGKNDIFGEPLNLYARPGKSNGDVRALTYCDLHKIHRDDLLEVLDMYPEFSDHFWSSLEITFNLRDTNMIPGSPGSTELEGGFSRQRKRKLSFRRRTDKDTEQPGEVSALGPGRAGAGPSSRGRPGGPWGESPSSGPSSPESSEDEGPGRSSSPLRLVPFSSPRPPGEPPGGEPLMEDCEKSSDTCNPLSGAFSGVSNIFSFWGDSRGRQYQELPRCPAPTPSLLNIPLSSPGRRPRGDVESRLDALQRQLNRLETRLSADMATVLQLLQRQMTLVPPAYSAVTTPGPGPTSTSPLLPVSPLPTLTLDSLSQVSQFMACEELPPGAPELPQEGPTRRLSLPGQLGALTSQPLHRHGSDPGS
# Sequence of UniProt P33261 (P33261 whole entry, looked up): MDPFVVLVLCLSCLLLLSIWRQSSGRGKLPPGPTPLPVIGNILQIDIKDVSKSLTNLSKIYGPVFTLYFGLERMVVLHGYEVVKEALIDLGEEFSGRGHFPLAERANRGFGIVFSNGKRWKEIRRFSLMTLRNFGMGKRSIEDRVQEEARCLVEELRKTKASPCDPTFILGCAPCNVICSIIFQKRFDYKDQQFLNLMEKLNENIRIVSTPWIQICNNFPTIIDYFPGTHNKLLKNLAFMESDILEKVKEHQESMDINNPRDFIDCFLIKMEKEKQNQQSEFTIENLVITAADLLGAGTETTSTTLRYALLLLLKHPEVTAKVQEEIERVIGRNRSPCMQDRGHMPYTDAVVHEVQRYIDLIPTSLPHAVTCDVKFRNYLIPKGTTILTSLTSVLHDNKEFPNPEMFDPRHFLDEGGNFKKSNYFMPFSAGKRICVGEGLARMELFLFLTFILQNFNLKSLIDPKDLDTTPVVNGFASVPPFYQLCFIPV
# Sequence of UniProt P08684 (P08684 whole entry, looked up): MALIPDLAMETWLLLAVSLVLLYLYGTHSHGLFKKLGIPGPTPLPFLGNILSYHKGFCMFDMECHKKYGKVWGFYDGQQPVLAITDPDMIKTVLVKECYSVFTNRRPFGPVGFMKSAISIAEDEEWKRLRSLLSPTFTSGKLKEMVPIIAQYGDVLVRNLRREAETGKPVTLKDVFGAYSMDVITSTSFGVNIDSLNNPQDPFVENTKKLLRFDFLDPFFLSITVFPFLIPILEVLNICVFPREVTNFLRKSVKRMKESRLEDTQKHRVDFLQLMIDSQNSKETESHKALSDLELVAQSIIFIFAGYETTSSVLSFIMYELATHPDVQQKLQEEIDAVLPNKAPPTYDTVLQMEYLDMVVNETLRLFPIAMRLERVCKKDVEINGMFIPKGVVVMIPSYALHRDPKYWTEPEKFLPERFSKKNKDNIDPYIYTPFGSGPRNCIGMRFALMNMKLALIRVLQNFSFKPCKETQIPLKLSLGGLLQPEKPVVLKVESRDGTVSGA
structure (smiles),measurement,setting,value
COC1=C(OC)C(=O)C(CCCCCCCCCCO)=C(C)C1=O,"activity, negative = inhibition",[1],inconclusive: 0.0839% [at 35.3 µM]
same,Potency,[2],active: 23.7 µM
same,Potency,[3],active: 34.7 µM
Cc1[nH]c(=O)c(C#N)cc1-c1ccncc1,Potency,[1],"inconclusive: 43.6 µM [rising, partial curve]"
same,Potency,[4],"inconclusive: 17.2 µM [cytotoxic, partial curve, poor fit]"
same,Potency,[3],inconclusive: 63.3 µM [inhibitor]
same,Potency,[5],"inconclusive: 17.4 µM [inhibitor, partial curve]"
CCC1=C[C@@H]2CN(C1)Cc1c([nH]c3ccccc13)[C@@](C(=O)OC)(c1cc3c(cc1OC)N(C)[C@H]1[C@@](O)(C(=O)OC)[C@H](OC(C)=O)[C@]4(CC)C=CCN5CC[C@]31[C@@H]54)C2,"activity, negative = inhibition",[1],inconclusive: 2.63% [at 35.3 µM]
same,Potency,[6],"inconclusive: 47.3 µM [activator, partial curve, poor fit]"
same,Potency,[7],"inconclusive: 12.6 µM [activator, full curve, poor fit]"
CCOc1ccc(Cc2nccc3cc(OCC)c(OCC)cc23)cc1OCC,"activity, negative = inhibition",[1],inconclusive: -1.07% [at 35.3 µM]
same,Potency,[4],active: 29.8 µM
same,Potency,[7],"inconclusive: 5.01 µM [activator, full curve, poor fit]"
same,Potency,[8],"inconclusive: 5.01 µM [activator, full curve, poor fit]"
same,Potency,[3],"inconclusive: 34.7 µM [inhibitor, partial curve]"
same,Potency,[9],"inconclusive: 19 µM [inhibitor, partial curve]"
CCC(Cl)C(Cl)C(Cl)CC(Cl)C(Cl)C(C)Cl (stereo unspecified),"activity, negative = inhibition",[1],inconclusive: -71.3%
same,Potency,[2],"inconclusive: 77 µM [cytotoxic, single point]"
same,Potency,[9],"inconclusive: 21.9 µM [inhibitor, full curve, poor fit]"
CN(C)CC/C=C1/c2ccccc2COc2ccc(CC(=O)O)cc21,"activity, negative = inhibition",[1],inconclusive: 0.106% [at 35.3 µM]
same,Potency,[2],"inconclusive: 29.8 µM [cytotoxic, partial curve]"
same,Potency,[3],inactive
same,Potency,[10],inactive
O[C@@H](COc1cccc2ncccc12)CN1CCN(C2c3ccccc3[C@@H]3[C@H](c4ccccc42)C3(F)F)CC1 (stereo partly specified),"activity, negative = inhibition",[1],inconclusive: -12.6% [at 35.3 µM]
same,Potency,[4],active: 21.1 µM
O=C1Nc2ccccc2C1(c1ccc(O)cc1)c1ccc(O)cc1,"activity, negative = inhibition",[1],inconclusive: 20.5%
same,Potency,[2],"inconclusive: 68.6 µM [cytotoxic] and inconclusive: 33.5 µM [cytotoxic, partial curve, poor fit]"
same,Potency,[3],"inconclusive: 63.3 µM [inhibitor, partial curve] and inconclusive: 38.9 µM [inhibitor, single point]"
same,Potency,[11],active: 17.8 µM and active: 9.77 µM
same,Potency,[10],"inconclusive: 30.9 µM [inhibitor, partial curve, poor fit]"
O=C(O)Cc1cccc2ccccc12,"activity, negative = inhibition",[1],inconclusive: -17.3% [at 35.3 µM]
same,Potency,[2],"inconclusive: 22.9 µM [rising, partial curve] and inconclusive: 24.5 µM [rising, partial curve] and inconclusive: 21.1 µM [rising, partial curve]"
same,Potency,[6],"inconclusive: 54.5 µM [activator, partial curve]"
same,Potency,[7],inactive
same,Potency,[10],"inconclusive: 30.9 µM [inhibitor, partial curve]"
same,Potency,[9],"inconclusive: 2.19 µM [inhibitor, single point]"
NNc1nc(-c2ccc([N+](=O)[O-])cc2)cs1,"activity, negative = inhibition",[1],inconclusive: -20.1%
same,Potency,[6],"inconclusive: 7.7 µM [activator, single point]"
C=CC(=O)OCCOCC(CC)(COCCOC(=O)C=C)COCCOC(=O)C=C,"activity, negative = inhibition",[1],inconclusive: 17.7%
same,Potency,[12],"inconclusive: 5.67 µM [activator, full curve, poor fit]"
same,Potency,[4],active: 63.7 µM
same,Potency,[3],inconclusive: 74 µM [inhibitor]
same,Potency,[10],"inconclusive: 52.4 µM [inhibitor, partial curve]"
CCCCc1nc2cccnc2n1Cc1ccc(-c2ccccc2-c2nnn[nH]2)cc1,Potency,[1],inconclusive: 54.9 µM [fluorescent]
same,Potency,[4],"inconclusive: 68.6 µM [cytotoxic, single point]"
same,Potency,[6],active: 61.1 µM
same,Potency,[13],"inconclusive: 39.9 µM [inhibitor, partial curve]"
C=C(C)C(=O)OCCOC(=O)C(=C)C,"activity, negative = inhibition",[1],inconclusive: -0.411%
same,Potency,[4],"inconclusive: 24.3 µM [cytotoxic, partial curve, poor fit]"
same,Potency,[3],inactive
same,Potency,[11],"inconclusive: 89.4 µM [inhibitor, single point]"
same,Potency,[5],inactive
CCN(CC)c1ccc(C(=C2C=CC(=[N+](CC)CC)C=C2)c2ccc(S(=O)(=O)O)cc2S(=O)(=O)[O-])cc1,"activity, negative = inhibition",[1],inconclusive: -38.7%
same,Potency,[4],active: 19.3 µM
O=C(O)Cc1cc(I)c(Oc2ccc(O)c(I)c2)c(I)c1,Potency,[1],"inconclusive: 38.9 µM [fluorescent, partial curve]"
same,Potency,[4],inactive
